Measured values published in the supplement of paper PMC9433436.
± gives the standard deviation of the averaged measurements. Over roughly 4,100 sequences, “relative kcat/Km (krel) vs genomic leader AAAGAU” has its median near 1.7; the highest 2% begin near 6.5. The list shows a part of the results, in another mix than the full data.

Molecular target: T1, E. coli RNase P holoenzyme (M1 P RNA + rnpA protein) (UniProt P0A7Y8)
T1 sequence: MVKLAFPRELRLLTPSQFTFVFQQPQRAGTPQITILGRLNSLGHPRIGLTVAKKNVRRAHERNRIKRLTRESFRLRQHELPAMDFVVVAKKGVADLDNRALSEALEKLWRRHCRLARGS
Assay: relative kcat/Km (krel) vs genomic leader AAAGAU (relative (reference leader = 1)); higher = faster RNase P cleavage
Description: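 HTS-Kin: a pool of ptRNA-Met (21C construct) with all 4096 combinations of 5' leader nucleotides N(-6) to N(-1) was processed in vitro by E. coli RNase P (P RNA + rnpA/C5 protein) under multiple-turnover conditions at 37 C, pH 8, 17.5 mM MgCl2. Residual substrate was Illumina-sequenced at several fractions reacted, and relative kcat/Km (krel) was computed by internal competition kinetics, calibrated to the genomic leader (AAAGAU = 1). The listed hexamer is the varied N(-6)..N(-1) leader (DNA letters), and it sits between a fixed 5' stem-loop flank (GCAUGCACGAAAGUGCGUGCUAUGAA) and the mature tRNA-Met starting GGCUACGUAGCUCAGUUGG. Two technical replicates are averaged.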

[1] = fraction of substrate reacted: ~26-29% (28.66% repeat 1, 26.4% repeat 2)
[2] = fraction of substrate reacted: ~9-10% (9.79% repeat 1, 9.1% repeat 2)
[3] = fraction of substrate reacted: ~13-16% (15.68% repeat 1, 13.17% repeat 2)

| Sequence | relative kcat/Km [1] | relative kcat/Km [2] | relative kcat/Km [3] |
| --- | --- | --- | --- |
| GGCAGG | 0.714 ± 0.04 |  |  |
| ACCACA | 2.93 ± 0.38 | 1.78 ± 1 | 1.18 ± 0.031 |
| AGCACA | 2.75 ± 1.6 | 1.61 ± 0.69 | 1.7 ± 0.22 |
| CTGAAC | 2.89 ± 0.17 | 1.4 ± 0.43 | 1.56 ± 0.17 |
| CGGGGA | 1.26 ± 0.75 | 0.804 ± 0.45 | 0.952 ± 0.8 |
| GAACAC | 3.79 ± 2 | 2.51 ± 0.54 | 2.49 ± 0.41 |
| TTCACG | 4.56 ± 1.4 | 2.05 ± 1.9 | 2.41 ± 0.2 |
| GGGGGT | 1.64 ± 0.64 |  |  |
| ATGGGG | 1.04 ± 1 |  |  |
| GATAAC | 3.66 ± 1 | 2.1 ± 0.44 | 2.81 ± 0.13 |
| CCGGTC | 0.988 ± 0.48 | 1.09 ± 0.83 |  |
| AGAGCC | 1.95 ± 0.056 |  | 1.08 ± 1 |
| CGGTGA | 0.796 ± 0.33 | 1.04 ± 0.013 | 0.427 ± 0.36 |
| CAGACT | 2.11 ± 0.27 | 2.31 ± 0.19 | 1.6 ± 0.15 |
| AACATC | 4.4 ± 1.2 | 2.81 ± 1.3 | 3.41 ± 0.46 |
| CAGGGG | 0.793 ± 0.55 | 0.431 ± 0.11 | 0.26 ± 0.073 |
| ACCGCA | 4.14 ± 1.6 | 2.69 ± 0.93 | 3.53 ± 1.4 |
| AGTTGC | 4.49 ± 2.1 | 2.29 ± 0.63 | 2.8 ± 0.55 |
| ATGTAA | 4.88 ± 1.9 | 2.29 ± 0.4 | 3.54 ± 0.58 |
| GACCCA | 2.89 ± 0.71 | 1.36 ± 0.79 | 1.59 ± 0.45 |
| CGCTGT | 1.15 ± 0.76 | 0.749 ± 0.51 | 0.633 ± 0.6 |
| GTAAAC | 3.36 ± 1.4 | 1.67 ± 0.13 | 2.42 ± 0.47 |
| GCTTCA | 1.42 ± 0.3 | 0.727 ± 0.029 | 0.854 ± 0.8 |

| Sequence | relative kcat/Km [1] | relative kcat/Km [2] | relative kcat/Km [3] |
| --- | --- | --- | --- |
| GTGCAT | 1.52 ± 0.4 | 1.15 ± 0.62 | 1.26 ± 0.058 |
| CAGTGC | 1.98 ± 0.55 | 1.87 ± 0.55 | 1.62 ± 0.28 |
| CATAGC | 3.61 ± 0.73 | 1.96 ± 0.68 | 2.77 ± 0.47 |
| TTCGCG | 3.87 ± 0.24 |  | 2.32 ± 0.79 |
| AACTTG | 1.19 ± 0.33 |  |  |
| AAAGCA | 0.913 ± 0.27 | 1.71 ± 0.91 | 1.3 ± 0.37 |
| AGAGGA |  | 0.113 ± 0.087 |  |
| CGAGGG | 0.283 ± 0.06 | 0.555 ± 0.24 |  |
| CGTGAC | 3.37 ± 1.4 | 2.55 ± 0.44 | 2.77 ± 1.6 |
| AGACAT | 4.74 ± 2.3 | 2.34 ± 0.18 | 3.58 ± 0.94 |
| TGGGTC | 1.63 ± 1.5 |  |  |
| CCATTA | 2.61 ± 0.68 | 2.6 ± 0.39 | 2.38 ± 0.72 |
| TACCAG | 4.81 ± 1.2 | 2.73 ± 1.4 | 2.64 ± 1.1 |
| AAAAAG | 0.847 ± 0.13 |  |  |
| GACATC | 5.9 ± 2.2 | 3.66 ± 0.77 | 3.95 ± 1.1 |
| TAGGAC | 2.48 ± 1.2 | 1.76 ± 1.3 | 2.22 ± 0.8 |
| ATTCGG | 1.2 ± 0.042 |  |  |
| GCAACC | 0.799 ± 0.41 | 0.531 ± 0.17 | 0.582 ± 0.035 |
| AAACAG | 1.39 ± 0.38 | 0.87 ± 0.18 |  |
| TTTGTG | 0.542 ± 0.42 |  |  |
| AAGTCT | 2.86 ± 1.1 | 2.19 ± 1.6 | 2.24 ± 0.11 |
| TGGGAG | 0.583 ± 0.23 |  |  |
| ACGCTC | 2.13 ± 0.26 | 1.61 ± 0.3 | 1.74 ± 0.24 |

| Sequence | relative kcat/Km [1] | relative kcat/Km [2] | relative kcat/Km [3] |
| --- | --- | --- | --- |
| ATCAAC | 5.86 ± 1.6 | 3.56 ± 1.5 | 4.05 ± 0.78 |
| GGCTAG | 2.56 ± 0.45 |  |  |
| GGGACG | 0.813 ± 0.32 |  |  |
| AGCTAG | 3.35 ± 1.1 | 2.24 ± 1.8 | 1.65 ± 0.16 |
| TTTACG | 1.78 ± 0.3 |  | 0.527 ± 0.33 |
| CCCAGG | 1.37 ± 0.24 | 1.3 ± 0.88 | 0.359 ± 0.013 |
| ACAAGG | 0.806 ± 0.46 | 0.983 ± 0.75 | 0.489 ± 0.23 |
| CCTTGA | 4.31 ± 0.98 | 3.04 ± 1.9 | 3.16 ± 0.61 |
| GTAGTC | 1.41 ± 0.024 | 1.75 ± 0.7 | 1.42 ± 0.58 |
| AGTTAG | 4.77 ± 1.3 | 2.06 ± 1.1 | 2.34 ± 0.29 |
| CAATAT | 6.37 ± 3 | 3.27 ± 0.33 | 4.46 ± 0.96 |
| GGCGCC | 3.06 ± 0.78 | 2.72 ± 2.1 | 2.21 ± 0.42 |
| CAGTCT | 3.68 ± 1.1 | 1.97 ± 0.68 | 2.58 ± 1 |
| TGCGCA | 2.46 ± 0.77 | 2 ± 0.91 | 1.69 ± 0.53 |
| ACATCA | 2.5 ± 1.6 | 1.21 ± 0.009 | 1.81 ± 0.19 |
| AGAATG | 1.37 ± 0.32 |  |  |
| AGCCGA | 4.79 ± 2.1 | 2.28 ± 0.18 | 2.48 ± 0.71 |
| TGCCAG | 2.44 ± 0.81 | 1.09 ± 0.63 | 0.569 ± 0.3 |
| CTTACA | 2.66 ± 0.61 | 1.45 ± 0.65 | 1.72 ± 0.22 |
| GAGAAG | 1.62 ± 0.15 |  | 0.734 ± 0.39 |
| CATAAG | 2.63 ± 0.4 | 2.17 ± 1.8 | 1.55 ± 0.2 |
| GCTTGA | 2.72 ± 0.46 |  | 1.64 ± 0.093 |
| GTGCAA | 1.32 ± 0.22 | 1.89 ± 1.4 | 1.25 ± 0.53 |

| Sequence | relative kcat/Km [1] | relative kcat/Km [2] | relative kcat/Km [3] |
| --- | --- | --- | --- |
| AGGTAC | 1.42 ± 0.88 | 1.06 ± 0.53 | 0.817 ± 0.12 |
| TTATTG | 1.66 ± 0.42 |  |  |
| TCTTCG | 1.66 ± 0.16 | 0.94 ± 0.5 | 0.723 ± 0.18 |
| CGGACC | 0.577 ± 0.38 | 0.889 ± 0.39 | 0.714 ± 0.41 |
| TAACTG | 0.792 ± 0.16 |  |  |
| GTCGTT | 2.84 ± 1.5 | 1.88 ± 0.21 | 2.27 ± 0.34 |
| GTGTCC | 1.45 ± 0.24 | 1.51 ± 0.45 | 0.992 ± 0.16 |
| TTACCA | 2.16 ± 1.2 | 2.14 ± 1.2 | 1.87 ± 0.28 |
| GCTCCG | 0.812 ± 0.77 |  |  |
| AGCGGA | 0.963 ± 0.59 |  | 0.402 ± 0.097 |
| AGGTTT | 1.18 ± 0.77 |  |  |
| TAGGCA | 1.61 ± 0.94 | 1.68 ± 0.35 | 1.12 ± 0.27 |
| TCAAAG | 1.88 ± 0.077 |  | 1.13 ± 0.55 |
| CGCAGT | 1.54 ± 1.1 | 0.604 ± 0.024 | 1.58 ± 1.3 |
| CCCGCT | 2.61 ± 0.18 | 2.05 ± 0.54 | 1.73 ± 1.7 |
| AAAGGG | 1.26 ± 0.72 |  |  |
| GCGGGA | 1.03 ± 0.89 |  |  |
| ATCAAA |  | 3.96 ± 1.9 | 5.34 ± 0.78 |
| GTTTTT | 4.66 ± 1.7 | 2.72 ± 0.87 | 3.31 ± 0.35 |
| CGATAC | 5.79 ± 2.4 | 3.25 ± 1.4 | 4.04 ± 1 |
| TGGATC | 1.46 ± 1.2 | 0.64 ± 0.58 | 1.09 ± 0.031 |
| TATCGT | 2.28 ± 2 |  |  |
| CGACTT | 2.58 ± 0.66 | 2.19 ± 0.62 | 1.6 ± 0.27 |

| Sequence | relative kcat/Km [1] | relative kcat/Km [2] | relative kcat/Km [3] |
| --- | --- | --- | --- |
| TATAAT | 5.41 ± 2.8 | 3.05 ± 0.91 | 3.72 ± 0.38 |
| AAGGAT |  | 0.301 ± 0.0072 |  |
| ACCTGT | 1.14 ± 1.1 |  |  |
| GCTGCG | 0.863 ± 0.14 |  |  |
| GCCCTG | 0.981 ± 0.65 |  |  |
| GAATCG | 1.07 ± 0.024 |  |  |
| TCGGTA |  | 0.285 ± 0.19 |  |
| GCTCGT | 1.23 ± 1 | 0.751 ± 0.11 |  |
| TATTGG | 1.46 ± 0.98 | 0.568 ± 0.24 |  |
| TACCTA | 4.3 ± 2 | 2.68 ± 0.57 | 2.96 ± 0.45 |
| ATAACG | 0.883 ± 0.29 |  |  |
| CCCCGA | 4.96 ± 1.9 | 3.63 ± 1.8 | 4.05 ± 0.29 |
| ATTCCC | 2.08 ± 0.99 | 1.87 ± 0.87 | 1.93 ± 0.23 |
| CAAGAA | 2.38 ± 0.52 | 2.22 ± 0.59 | 1.66 ± 0.49 |
| TACTCA | 6.33 ± 3 | 4.24 ± 2.1 | 4.66 ± 0.28 |
| TCGTTC | 5.41 ± 2.3 | 3.28 ± 0.52 | 3.48 ± 1.1 |
| GTAGCG | 0.718 ± 0.3 |  |  |
| CATTGT | 1.59 ± 0.98 |  |  |
| TCCAAG | 4.8 ± 1.6 | 2.34 ± 1.2 | 1.77 ± 1.2 |
